Some of the results follow. Single values are uncertain, as repeats are few or missing.
Test system: WM3526
Assay: cell count relative to DMSO control; melanoma cells; higher = more viable cells
Settings: library dose: low library concentration; 72 h
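Note: cell number obtained by counting DAPI-stained nuclei in high-throughput microscope images with image analysis software, screen run in 1,536-well plates.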

Row | SMILES | cell count [%]
1 | CO[C@H]1C[C@@H]2CC[C@@H](C)[C@@](O)(O2)C(=O)C(=O)N2CCCC[C@H]2C(=O)O[C@H]([C@H](C)C[C@@H]2CC[C@@H](OCCO)[C@H](OC)C2)CC(=O)[C@H](C)/C=C(\C)[C@@H](O)[C@@H](OC)C(=O)[C@H](C)C[C@H](C)/C=C/C=C/C=C/1C [everolimus] + CN(C)S(=O)(=O)c1ccc2c(c1)/C(=C/c1cc3c([nH]1)CCCC3)C(=O)N2 [SU6656] (first compound 0.02 µM, partner dose 0.4 µM) | 73.4
2 | CC(=O)c1c(C)c2cnc(Nc3ccc(N4CCNCC4)cn3)nc2n(C2CCCC2)c1=O [palbociclib] + O=C1NC(=O)/C(=C/c2ccc(-c3ccc(F)cc3O)o2)S1 [AS252424] (first compound 0.04 µM, partner dose 1 µM) | 54.3
3 | CC(=O)c1c(C)c2cnc(Nc3ccc(N4CCNCC4)cn3)nc2n(C2CCCC2)c1=O [palbociclib] + O=C(Nc1cccc(Cl)c1)Nc1ncc(CCNc2ncnc3ccsc23)s1 [SNS314] (first compound 0.04 µM, partner dose 0.0008 µM) | 63.7
4 | Nc1ncn([C@H]2C[C@H](O)[C@@H](CO)O2)c(=O)n1 [decitabine] + C[C@]1(c2nc3c(C(N)=O)cccc3[nH]2)CCCN1 [Veliparib] (first compound 0.1 µM, partner dose 1.4 µM) | 130
5 | CC(=O)c1c(C)c2cnc(Nc3ccc(N4CCNCC4)cn3)nc2n(C2CCCC2)c1=O [palbociclib] + Clc1ccc(Nc2nnc(Cc3ccncc3)c3ccccc23)cc1 [vatalanib] (first compound 0.04 µM, partner dose 2 µM) | 66.8
6 | Nc1nc(F)nc2c1ncn2[C@@H]1O[C@H](CO)[C@@H](O)[C@@H]1O [fludarabine] + COc1cc2ncnc(Nc3ccc(Oc4ccccc4)cc3)c2cc1OC [SrcI1] (first compound 0.2 µM, partner dose 2 µM) | 34.1

Test system: WM3619
Assay: as above
Settings: library dose: low library concentration; 72 h

Row | SMILES | cell count [%]
7 | CC(=O)O[C@@]12CO[C@@H]1C[C@H](O)[C@@]1(C)C(=O)[C@H](O)C3=C(C)[C@@H](OC(=O)[C@H](O)[C@@H](NC(=O)OC(C)(C)C)c4ccccc4)C[C@@](O)([C@@H](OC(=O)c4ccccc4)[C@H]21)C3(C)C [Docetaxel] + Nc1cccc2c1CN(C1CCC(=O)NC1=O)C2=O [lenalidomide] (first compound 0.0001 µM, partner dose 1 µM) | 75.2
8 | CC(=O)O[C@@]12CO[C@@H]1C[C@H](O)[C@@]1(C)C(=O)[C@H](O)C3=C(C)[C@@H](OC(=O)[C@H](O)[C@@H](NC(=O)OC(C)(C)C)c4ccccc4)C[C@@](O)([C@@H](OC(=O)c4ccccc4)[C@H]21)C3(C)C [Docetaxel] + O=C(O)c1ccc(-c2c[nH]c3ncc(-c4ccccc4)cc23)cc1C1CCCC1 [GSK650394] (first compound 0.0001 µM, partner dose 0.16 µM) | 63.1
9 | Nc1nc(F)nc2c1ncn2[C@@H]1O[C@H](CO)[C@@H](O)[C@@H]1O [fludarabine] + CC1(C)NC(=O)N(c2ccc([N+](=O)[O-])c(C(F)(F)F)c2)C1=O [nilutamide] (first compound 0.2 µM, partner dose 1 µM) | 88
10 | Nc1nc(F)nc2c1ncn2[C@@H]1O[C@H](CO)[C@@H](O)[C@@H]1O [fludarabine] + c1cc(-c2cnn3cc(-c4ccc(OCCN5CCCCC5)cc4)cnc23)ccn1 [Dorsomorphin] (first compound 0.2 µM, partner dose 0.4 µM) | 96
11 | Nc1nc(F)nc2c1ncn2[C@@H]1O[C@H](CO)[C@@H](O)[C@@H]1O [fludarabine] + CCN(CC)CCCCNc1ncc2cc(-c3cc(OC)cc(OC)c3)c(NC(=O)NC(C)(C)C)nc2n1 [PD173074] (first compound 0.2 µM, partner dose 0.1 µM) | 80.6
12 | Nc1nc(F)nc2c1ncn2[C@@H]1O[C@H](CO)[C@@H](O)[C@@H]1O [fludarabine] + C=CCNC1=C2C[C@@H](C)C[C@H](OC)[C@H](O)[C@@H](C)/C=C(\C)[C@H](OC(N)=O)[C@@H](OC)/C=C\C=C(/C)C(=O)NC(=CC1=O)C2=O [Tanespimycin] (first compound 0.2 µM, partner dose 0.002 µM) | 88.3
13 | Nc1nc(F)nc2c1ncn2[C@@H]1O[C@H](CO)[C@@H](O)[C@@H]1O [fludarabine] + C=CCn1c(=O)c2cnc(Nc3ccc(N4CCN(C)CC4)cc3)nc2n1-c1cccc(C(C)(C)O)n1 [MK1775] (first compound 0.2 µM, partner dose 0.02 µM) | 79
14 | CC(=O)c1c(C)c2cnc(Nc3ccc(N4CCNCC4)cn3)nc2n(C2CCCC2)c1=O [palbociclib] + CN(C)S(=O)(=O)c1ccc2c(c1)/C(=C/c1cc3c([nH]1)CCCC3)C(=O)N2 [SU6656] (first compound 0.04 µM, partner dose 0.4 µM) | 82.3
15 | CC(=O)c1c(C)c2cnc(Nc3ccc(N4CCNCC4)cn3)nc2n(C2CCCC2)c1=O [palbociclib] + Cn1cncc1[C@@](N)(c1ccc(Cl)cc1)c1ccc2c(c1)c(-c1cccc(Cl)c1)cc(=O)n2C [tipifarnib] (first compound 0.04 µM, partner dose 0.01 µM) | 56.2
16 | Nc1ccn([C@@H]2O[C@H](CO)[C@@H](O)C2(F)F)c(=O)n1 [gemcitabine] + Nc1cccc2c1CN(C1CCC(=O)NC1=O)C2=O [lenalidomide] (first compound 0.0004 µM, partner dose 1 µM) | 64.4
17 | Nc1nc(F)nc2c1ncn2[C@@H]1O[C@H](CO)[C@@H](O)[C@@H]1O [fludarabine] + Clc1ccc(Nc2nnc(Cc3ccncc3)c3ccccc23)cc1 [vatalanib] (first compound 0.2 µM, partner dose 2 µM) | 87.2
18 | Nc1nc(F)nc2c1ncn2[C@@H]1O[C@H](CO)[C@@H](O)[C@@H]1O [fludarabine] + C#Cc1cccc(Nc2ncnc3cc(OCCOC)c(OCCOC)cc23)c1 [erlotinib] (first compound 0.2 µM, partner dose 0.8 µM) | 114
19 | Nc1nc(F)nc2c1ncn2[C@@H]1O[C@H](CO)[C@@H](O)[C@@H]1O [fludarabine] + O=C(O)C(=O)Nc1sc2c(c1C(=O)O)CCNC2 [TCS401] (first compound 0.2 µM, partner dose 1.66667 µM) | 120
20 | CC(=O)O[C@@]12CO[C@@H]1C[C@H](O)[C@@]1(C)C(=O)[C@H](O)C3=C(C)[C@@H](OC(=O)[C@H](O)[C@@H](NC(=O)OC(C)(C)C)c4ccccc4)C[C@@](O)([C@@H](OC(=O)c4ccccc4)[C@H]21)C3(C)C [Docetaxel] + O=c1cc(-c2cccc3c2Sc2ccccc2S3)oc(N2CCOCC2)c1 [KU55933] (first compound 0.0001 µM, partner dose 1 µM) | 60.6
21 | Nc1ccn([C@@H]2O[C@H](CO)[C@@H](O)C2(F)F)c(=O)n1 [gemcitabine] + Cc1cc([N+](=O)[O-])ccc1NS(=O)(=O)c1cc(Cl)ccc1Cl [FH535] (first compound 0.0004 µM, partner dose 1 µM) | 84.7
22 | CC(=O)c1c(C)c2cnc(Nc3ccc(N4CCNCC4)cn3)nc2n(C2CCCC2)c1=O [palbociclib] + O=C(O)c1ccc(-c2c[nH]c3ncc(-c4ccccc4)cc23)cc1C1CCCC1 [GSK650394] (first compound 0.04 µM, partner dose 0.16 µM) | 86.9
23 | CO[C@H]1C[C@@H]2CC[C@@H](C)[C@@](O)(O2)C(=O)C(=O)N2CCCC[C@H]2C(=O)O[C@H]([C@H](C)C[C@@H]2CC[C@@H](OCCO)[C@H](OC)C2)CC(=O)[C@H](C)/C=C(\C)[C@@H](O)[C@@H](OC)C(=O)[C@H](C)C[C@H](C)/C=C/C=C/C=C/1C [everolimus] + CCCCCCCCCCCC1=C(O)C(=O)C=C(O)C1=O [Embelin] (first compound 0.02 µM, partner dose 1.2 µM) | 67.8
24 | Nc1ncn([C@H]2C[C@H](O)[C@@H](CO)O2)c(=O)n1 [decitabine] + CC(C)(C)c1cnc(CSc2cnc(NC(=O)C3CCNCC3)s2)o1 [SNS-032] (first compound 0.1 µM, partner dose 0.01 µM) | 91.4
25 | CO[C@H]1C[C@@H]2CC[C@@H](C)[C@@](O)(O2)C(=O)C(=O)N2CCCC[C@H]2C(=O)O[C@H]([C@H](C)C[C@@H]2CC[C@@H](OCCO)[C@H](OC)C2)CC(=O)[C@H](C)/C=C(\C)[C@@H](O)[C@@H](OC)C(=O)[C@H](C)C[C@H](C)/C=C/C=C/C=C/1C [everolimus] + Cn1nnc2c(C(N)=O)ncn2c1=O [temozolomide] (first compound 0.02 µM, partner dose 2 µM) | 56.5
26 | CO[C@H]1C[C@@H]2CC[C@@H](C)[C@@](O)(O2)C(=O)C(=O)N2CCCC[C@H]2C(=O)O[C@H]([C@H](C)C[C@@H]2CC[C@@H](OCCO)[C@H](OC)C2)CC(=O)[C@H](C)/C=C(\C)[C@@H](O)[C@@H](OC)C(=O)[C@H](C)C[C@H](C)/C=C/C=C/C=C/1C [everolimus] + Cn1cncc1[C@@](N)(c1ccc(Cl)cc1)c1ccc2c(c1)c(-c1cccc(Cl)c1)cc(=O)n2C [tipifarnib] (first compound 0.02 µM, partner dose 0.01 µM) | 70.7

Source: the supplement of paper PMC4604168 (melanoma cell lines)
